Several values for one entry are separate records, joined by “and”; a condition that tells them apart may be missing. Identical values can stand only once. The whole screen tested about 94,000 compounds, of which about 4,000 (4.3%) were called active. Inconclusive results, whose numbers are uncertain, are shown with a selection of clear calls. The call rests on the fitted dose curve; in most records, active means well fitted inhibition curve with a large enough effect; inconclusive means small, poorly fitted or top-dose-only effect; inactive means no such curve, though single readings can be large or run the other way. Potencies beside an inconclusive call are fits to weak or partial responses and may not hold up.
Test: Cytotoxic Profiling in NIH 3T3 Cell Line of Diverse Libraries Using Quantitative High-Throughput Screening; further: nearly all actives have a fitted effect of over 55% in size
Conditions: NIH 3T3 viability, CellTiter-Glo ATP luminescence, 48-72 h; series mostly up to 96.7 µM
Summary of the method: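 Mouse fibroblast NIH 3T3 cells, 400 per well, received compound via pintool and were incubated for 48 or 72 hr prior to CellTiter-Glo ATP luminescence measurement.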
Potency means the concentration at half of the fitted maximal effect; tags describe the fitted curve by direction and shape.

| Compound | Potency |
| --- | --- |
| COc1cccc(-c2cc(C3CCN(C(=O)c4cc(C)ccc4C)CC3)[nH]n2)c1 | inconclusive: 44.7 µM [inhibitor, partial curve, poor fit] |
| CC(C)(Oc1nn(Cc2cccc(Cl)c2)c2ccccc12)C(=O)N1CCCC1 | active: 50.1 µM |
| CC1CCCC(C)N1C(=O)c1cc(-c2ccc(F)cc2)c2nncn2n1 (stereo not given) | inconclusive: 50.1 µM [inhibitor, partial curve, poor fit] |
| COc1ccccc1-c1nc2nccc(-c3ccncc3)n2n1 | inconclusive: 70.8 µM [inhibitor, single point] |
| N#Cc1cccc(C(=O)N2CCNc3cnc(Nc4cccc(F)c4)nc3C2)c1 | inconclusive: 79.4 µM [inhibitor, partial curve] |
| FC(F)(F)Oc1cccc(CN2CCNc3cc(Nc4cccnc4)ncc3C2)c1 | inconclusive: 20 µM [inhibitor, full curve, poor fit] |
| O=C(CC1CCCCC1)N1CCC2(CC1)NC(=O)N(c1ccccc1)N2 | inconclusive: 28.2 µM [inhibitor, partial curve, poor fit] |
| COc1ccc(Cn2c3c(c(=O)n2Cc2ccccc2)CCN(C(=O)c2scnc2C)C3)cc1 | inconclusive: 11.2 µM [inhibitor, full curve, poor fit] |
| CN1CCC2(Cc3ccccc3CN(C(=O)CN)C2)C1 (stereo not given) | inactive |
| CN(C(=O)c1ccc(C(F)(F)F)cc1)C1CCCc2ccccc21 (stereo not given) | active: 50.1 µM |
| COc1ccccc1-c1ccc(CN2CCCCC2C(=O)NCC2CC2)cc1 (stereo not given) | inconclusive: 44.7 µM [inhibitor, partial curve, poor fit] and inconclusive: 50.1 µM [inhibitor, partial curve, poor fit] |
| COc1ccc(-c2ccc3ncc(Nc4ccc(C(N)=O)cc4)n3n2)cc1OC | active: 17.8 µM |
| COc1cc(NC(=O)N2CC(c3noc(-c4ccccc4)n3)C2)cc(OC)c1OC | inconclusive: 44.7 µM [inhibitor, partial curve, poor fit] |
| C=CCNC(=O)C1CCCN(S(=O)(=O)c2ccccc2)CCC(=O)NCC1 (stereo not given) | inactive |
| COc1ccc(Cn2c(=O)c(C(=O)NCCc3ccc(F)cc3)nc3cccnc32)cc1 | inconclusive: 50.1 µM [inhibitor, partial curve, poor fit] |
| COc1cccc(CC(=O)N2CCCN(c3cc(-c4ccccc4)[nH]n3)CC2)c1 | inconclusive: 22.4 µM [inhibitor, full curve, poor fit] |
| CCc1nc(N2CCC(n3c(=O)[nH]c4ccccc43)CC2)c2cnn(C)c2n1 | inconclusive: 44.7 µM [inhibitor, partial curve, poor fit] |
| O=C1[C@H]2CN(Cc3ccc(F)cc3F)C[C@H]2C(=O)N1CCN1CCc2ccccc2C1 | inconclusive: 28.2 µM [inhibitor, partial curve, poor fit] |
| O=C(CC1CCCC1)N1CCCC(c2noc(COc3ccccc3F)n2)C1 (stereo not given) | inconclusive: 44.7 µM [inhibitor, partial curve, poor fit] |
| CN(C)Cc1nnc(C2CC(NC(=O)c3ccnnc3)C2)n1C (stereo not given) | inactive |

| Compound | Potency |
| --- | --- |
| COc1cccc(-c2ccc(C(=O)NCCNC(=O)Cc3ccc(F)cc3)cc2)c1 | inconclusive: 70.8 µM [inhibitor, single point] |
| COc1ccc(NC(=O)C2(C)CCc3cnc(Nc4ccccc4)nc32)cn1 (stereo not given) | inconclusive: 44.7 µM [inhibitor, partial curve, poor fit] |
| CC(=O)N1CCN(C(=O)C2CCN(c3nccc(Nc4ccc(C)cc4)n3)CC2)CC1 | inactive |
| N#Cc1cccnc1N1CC[C@@H](N2CCC(O)CC2)[C@H](O)C1 | inactive |
| COc1ccc(-c2ccc3ncc(Nc4cccc(F)c4)n3n2)cn1 | inconclusive: 56.2 µM [inhibitor, partial curve, poor fit] |
| CCOC(=O)c1ccc(N2CCN(C(=O)C3=CC(C)(C)COc4ccc(OC)cc43)CC2)cc1 | inconclusive: 17.8 µM [inhibitor, full curve, poor fit] |
| Cn1ncc2c(C(=O)N3CCN(Cc4ccccc4)CC3)cc(-c3ccccc3C(F)(F)F)nc21 | inconclusive: 44.7 µM [inhibitor, partial curve, poor fit] |
| COc1ccc(CNC(=O)C2CCCN2C(=O)c2cccc(-c3cccnc3)c2)cc1 (stereo not given) | inconclusive: 70.8 µM [inhibitor, partial curve, poor fit] |
| CO[C@H]1C(=O)N(C2CCN(C(=O)Cn3ccc(C)n3)CC2)[C@H]1c1ccncc1 | inactive |
| CCC(C)NC(=O)Cc1csc2nc(C)c(-c3cc(C)n(-c4ccc(C)cc4)n3)c(=O)n12 (stereo not given) | inactive |
| CCN(CC)C(=O)N1CC(Oc2ccc(-c3noc(COC)n3)cc2)C1 | inconclusive: 5.62 µM [inhibitor, full curve, poor fit] |
| Cc1oc(C(C)C)cc1C(=O)N1CCC2(CC1)C(C(=O)O)CC(=O)N2C (stereo not given) | inactive |
| O[C@H]1CC[C@@H](Cc2cc(-c3ccccc3)on2)O[C@@H]1CNCc1ccccc1 | inconclusive: 112 µM [inhibitor, partial curve] |
| Cc1c(Cn2ccnc2-c2cc(C#CCO)cs2)oc2ccccc12 | inconclusive: 50.1 µM [inhibitor, partial curve, poor fit] |
| Cn1cc(-c2ccc(Cl)cc2)c2nc(CNc3ccccc3)cn2c1=O | inconclusive: 25.1 µM [inhibitor, full curve] |
| Cc1ccc(CN2CCC(CNc3ccncn3)CC2)o1 | inactive |
| CC(=O)N1CCC(C(=O)N2CCC(c3nc4ncccc4[nH]3)CC2)C1 (stereo not given) | inactive |
| COCCN1CCCCCC(O)c2cc(C(=O)N3CC=C(c4ccccc4)CC3)ccc21 (stereo not given) | inconclusive: 39.8 µM [inhibitor, partial curve, poor fit] |
| O=C1NC(=NC2CCCCC2)C2(CCN(Cc3ccccc3)C2)N1c1cc(F)cc(F)c1 (stereo not given) | active: 31.6 µM |
| CN1c2cc(C(=O)Nc3cccc(C#N)c3)ccc2C(=O)N2CCCCC21 (stereo not given) | inconclusive: 44.7 µM [inhibitor, partial curve, poor fit] |

— PubChem BioAssay AID1345082 (National Center for Advancing Translational Sciences (NCATS), 2018)
